{"source": "PubChem BioAssay AID1461", "about": "(National Center for Advancing Translational Sciences (NCATS), 2008)", "note": "In all, about 220,000 compounds went through this assay and about 2,300 (1%) were called active. The shares of active, inactive and inconclusive entries below differ from those in the screen. Calls follow the shape of the dose curve; as a rule, active = well fitted inhibition curve with a large enough effect; inconclusive = small, poorly fitted or top-dose-only effect, or effect the other way; inactive = no such curve, though single readings can be large or run the other way. No potency is given beside an inconclusive call; the fits are too rough. Potency is read from the fitted curve at half-maximal effect; tags tell the direction and shape of the fitted curve."}
{"target": "Neuropeptide S receptor (Homo sapiens) (UniProt Q6W5P4)", "sequence (Q6W5P4 whole entry, looked up)": "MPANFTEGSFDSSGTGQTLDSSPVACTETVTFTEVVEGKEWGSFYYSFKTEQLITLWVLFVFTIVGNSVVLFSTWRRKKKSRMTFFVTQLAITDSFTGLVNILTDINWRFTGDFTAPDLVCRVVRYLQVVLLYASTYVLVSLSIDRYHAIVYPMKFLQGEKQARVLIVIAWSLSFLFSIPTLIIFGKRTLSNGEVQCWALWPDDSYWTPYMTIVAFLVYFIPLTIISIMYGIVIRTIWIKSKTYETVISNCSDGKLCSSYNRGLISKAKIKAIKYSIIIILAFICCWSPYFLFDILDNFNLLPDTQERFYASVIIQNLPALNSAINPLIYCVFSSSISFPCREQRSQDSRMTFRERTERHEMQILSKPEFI", "test": "qHTS Assay for Antagonists of the Neuropeptide S Receptor: cAMP Signal Transduction; also: nearly all actives have a fitted effect of over 50% in size", "conditions": "CHO-NPSR cells, cAMP TR-FRET, antagonist mode; series mostly up to 38.3 µM"}
{"smiles": "CC/S(=N\\S(=O)(=O)c1ccc(C)cc1)c1ccccc1", "note": "(centres undefined)", "Potency": "inconclusive [activator, single point]"}
{"smiles": "CCOc1cc(/C=C2\\CCCC(C(=O)C(F)(F)F)=C2O)ccc1O", "Potency": "inactive"}
{"smiles": "O=C(/C=C/c1ccc(O)cc1)c1ccc(O)cc1O", "Potency": "inconclusive [inhibitor, single point]"}
{"smiles": "Nc1nnc(SCCOc2ccc(Br)cc2)s1", "Potency": "inconclusive [inhibitor, single point]"}
{"smiles": "COc1ccc([C@H]2[C@H]3C=CC[C@@H](C)[C@@H]3C(=O)N2Cc2ccccc2)cc1Cl", "Potency": "inconclusive [inhibitor, single point]"}
{"smiles": "COc1cc(OC)cc(C(=O)/C=C2\\Sc3ccccc3N2C)c1", "Potency": "inconclusive [activator, partial curve]"}
{"smiles": "O=C(c1ccc(CNc2c(N3CCOCC3)c(=O)c2=O)cc1)N1CC=C(c2ccccc2)CC1", "Potency": "inconclusive [inhibitor, single point]"}
{"smiles": "COc1ccc(C)cc1-n1nnnc1SCC1CCCCO1", "note": "(centres undefined)", "Potency": "inconclusive [inhibitor, single point]"}
{"smiles": "N=c1n(CCN2CCCCC2)c2ccccc2n1CC(=O)c1ccc(Cl)c(Cl)c1", "Potency": "inconclusive [inhibitor, single point]"}
{"smiles": "CC(NC(=O)CN1C(=O)NC(Cc2ccccc2)(Cc2ccccc2)C1=O)C12CC3CC(CC(C3)C1)C2", "note": "(centres undefined)", "Potency": "inconclusive [inhibitor, single point]"}
{"smiles": "COc1ccc(C2CC(c3c(-c4ccccc4)c4cc(Cl)ccc4[nH]c3=O)=NN2S(C)(=O)=O)cc1OC", "note": "(centres undefined)", "Potency": "inconclusive [inhibitor, partial curve]"}
{"smiles": "COc1ccccc1NC=C1C(=O)OC2(CCCCC2)OC1=O", "Potency": "inconclusive [inhibitor, partial curve, poor fit]"}
{"smiles": "CCOC(=O)c1sc2ccc(S(=O)(=O)N3CCCCC3)cc2c1N", "Potency": "inconclusive [inhibitor, single point]"}
{"smiles": "CCOc1ccc(Cl)cc1S(=O)(=O)n1cnc2cc(C)c(C)cc21", "Potency": "inconclusive [inhibitor, single point]"}
{"smiles": "Cc1nc(N2CCN(Cc3ccccc3)CC2)nc2c1C(=O)CC(c1ccco1)C2", "note": "(centres undefined)", "Potency": "inactive"}
{"smiles": "CC(C(=O)c1ccccc1)[n+]1cccc(C(N)=O)c1", "note": "(centres undefined)", "Potency": "inactive"}
{"smiles": "CCNc1nc(NC(C)C)nc(N(C#N)CCOc2ccc(Cl)cc2Cl)n1", "Potency": "active: 10 µM"}
{"smiles": "O=C(Nc1cccc(S(=O)(=O)NC2=NCCCCC2)c1)c1cc(-c2ccco2)nc2ccccc12", "Potency": "inactive"}
{"smiles": "COc1ccccc1OCC(=O)Nc1cccc(-c2nc3ccccc3o2)c1", "Potency": "inactive"}
{"smiles": "O=c1ccc2[n+]([O-])c3ccc(O)cc3oc-2c1", "Potency": "inconclusive [activator, single point]"}
{"smiles": "CC(OC(=O)c1ccc2ncsc2c1)C(=O)Nc1ncc(Cl)cc1Cl", "note": "(centres undefined)", "Potency": "inactive"}
{"smiles": "Fc1ccc(N2CCN(C3=Nc4cccc5cccc3c45)CC2)cc1", "Potency": "inconclusive [inhibitor, single point]"}
{"smiles": "Cc1ccc(NC(=O)C2(c3ccccc3)CC2(Cl)Cl)cc1C", "note": "(centres undefined)", "Potency": "inconclusive [inhibitor, single point]"}
{"smiles": "CC(Nc1ccc2c(c1)OCCO2)C(=O)Nc1ccc2c(c1)OCO2", "note": "(centres undefined)", "Potency": "inactive"}
{"smiles": "Cc1ccc2c3c1C1(C(=O)N3C(C)(C)CC2C)C(C#N)=C(N)Oc2cc(O)ccc21", "note": "(centres undefined)", "Potency": "inconclusive [inhibitor, single point]"}
{"smiles": "O=C(CCCSc1ccccc1)Nc1nc(-c2ccco2)c(-c2ccco2)s1", "Potency": "inconclusive [inhibitor, single point]"}
{"smiles": "c1ccc(Nc2ncnc3sc4c(c23)CCC4)cc1", "Potency": "inactive"}
{"smiles": "COc1ccc(N(Cc2cc3ccc(C)cc3[nH]c2=O)C(=O)c2ccco2)cc1", "Potency": "inactive"}
{"smiles": "Cc1ccc(-c2nn(-c3cccc(F)c3)cc2CN(Cc2nccn2C)C(C)C)o1", "Potency": "inconclusive [activator, single point]"}
{"smiles": "O=C(C1CCCN(S(=O)(=O)c2cccc3nsnc23)C1)N1CC=C(c2ccccc2)CC1", "note": "(centres undefined)", "Potency": "inconclusive [inhibitor, single point]"}
{"smiles": "N#Cc1cc2c(nc1SCc1ccc(Cl)nc1)CCCCC2", "Potency": "inconclusive [inhibitor, single point]"}
{"smiles": "Cn1c(=O)n(C)c2cc(/C=C3/NC(=O)N(Cc4ccccc4)C3=O)ccc21", "Potency": "inactive"}
{"smiles": "COc1ccc(Cn2c(CCC(=O)Nc3ccc(CC#N)cc3)nc3cccnc32)cc1", "Potency": "inconclusive [inhibitor, single point]"}
{"smiles": "Cc1cc(C)c(S(=O)(=O)/N=C2/C=C(SCC(=O)O)C(=O)c3ccccc32)cc1C", "Potency": "inactive"}
{"smiles": "O=C(COC(=O)c1cc(-c2ccc(Cl)s2)nc2ccccc12)NCc1ccco1", "Potency": "inconclusive [activator, single point]"}
{"smiles": "C=CCN(CC=C)S(=O)(=O)c1ccc(NC(=S)NC(=O)/C=C/c2ccccc2)cc1", "Potency": "inconclusive [inhibitor, partial curve]"}
{"smiles": "CCCCn1c(SCC(=O)NC(C)CC)nc2ccc(N3CCOCC3)cc2c1=O", "note": "(centres undefined)", "Potency": "inconclusive [inhibitor, single point]"}
{"smiles": "C/C(=N\\NC(=O)CCC(=O)Nc1ccccc1)c1cccs1", "Potency": "inactive"}
{"smiles": "O=S(=O)(Nc1nc2ccc(S(=O)(=O)N3CCCCC3)cc2s1)c1ccccc1", "Potency": "inactive"}
{"smiles": "COc1ccc(-c2csc(N(C)C(=O)c3cccs3)n2)cc1", "Potency": "inactive"}
{"smiles": "Cc1cc2n(n1)SC(Nc1ccccc1)N2", "note": "(centres undefined)", "Potency": "inactive"}
{"smiles": "CCCC(=O)Nc1nc(C)c(C(C)=O)s1", "Potency": "inactive"}
{"smiles": "O=C(CSc1ncccc1-c1nc2ccccc2[nH]1)N1CCCCC1", "Potency": "inconclusive [activator, partial curve]"}
{"smiles": "CCSS(=O)(=O)c1cccc2cccnc12", "Potency": "inconclusive [inhibitor, single point]"}
{"smiles": "COc1cccc(NC(=O)c2oc3ccccc3c2NC(=O)C2CC2)c1", "Potency": "inconclusive [inhibitor, single point]"}
{"smiles": "CCN(CCNC(=O)C1CCN(Cc2nc(-c3cccc(Cl)c3)oc2C)CC1)c1ccccc1", "Potency": "inconclusive [inhibitor, single point]"}
{"smiles": "O=C(O)CCCCCN1C(=O)/C(=C/c2ccncc2)SC1=S", "Potency": "inactive"}
{"smiles": "O=C(CN(C(=O)CCC(=O)Nc1nccs1)c1ccc(F)c(Cl)c1)NCc1ccco1", "Potency": "inconclusive [activator, partial curve, poor fit]"}
{"smiles": "CC(NC(=O)CCSc1nc(-c2ccc3c(c2)OCO3)cc(C(F)(F)F)n1)c1ccccc1", "note": "(centres undefined)", "Potency": "inconclusive [inhibitor, partial curve]"}
{"smiles": "O=C(NC(=S)Nc1cccc2cccnc12)c1ccccc1", "Potency": "inconclusive [inhibitor, single point]"}
{"smiles": "O=C(/C=C/c1ccc(N2CCCCC2)c([N+](=O)[O-])c1)c1ccc(O)cc1", "Potency": "inactive"}
{"smiles": "CC(C)Cn1c(N)c(C(=O)CSc2nc3ccccc3c(=O)n2CCCN2CCOCC2)c(=O)n(C)c1=O", "Potency": "inconclusive [inhibitor, single point]"}
{"smiles": "O=C(CCCn1c(SCC(=O)c2ccc(O)c(O)c2)nc2ccccc2c1=O)NCC1CCCO1", "note": "(centres undefined)", "Potency": "inconclusive [inhibitor, partial curve, poor fit]"}
{"smiles": "Cc1onc(-c2ccccc2)c1C(=O)NCC1CCN(C(=O)c2c(-c3ccccc3)noc2C)CC1", "Potency": "inconclusive [inhibitor, single point]"}
{"smiles": "Cc1ccc(S(=O)(=O)N(CC(=O)NCCSCc2ccco2)c2ccc(F)cc2)cc1", "Potency": "inconclusive [activator, partial curve]"}
{"smiles": "O=C(COC(=O)c1cc(=O)[nH]c2ccccc12)NC(=O)NC1CCCCC1", "Potency": "inconclusive [inhibitor, partial curve]"}
{"smiles": "Cc1occc1-c1nnc(SCC(=O)NCC2CCCO2)n1C", "note": "(centres undefined)", "Potency": "inactive"}
{"smiles": "O=C(NC(=S)Nc1cc(C(F)(F)F)ccc1N1CCOCC1)c1ccco1", "Potency": "inconclusive [activator, partial curve]"}
{"smiles": "C/C(CC(=O)Nc1ccccc1Cl)=N\\NC(=O)C(=O)NCCO", "Potency": "inactive"}
{"smiles": "CC1CN(C(=O)/C(C#N)=C2\\N=C(NC(=O)c3ccc(F)cc3)c3ccccc32)CC(C)O1", "note": "(centres undefined)", "Potency": "inconclusive [inhibitor, single point]"}
{"smiles": "O=c1oc(-c2ccccc2)nc2c1cnn2-c1ccccc1", "Potency": "inconclusive [inhibitor, single point]"}
{"smiles": "Cc1ccc(S(=O)(=O)/C(C#N)=C/c2c(N3CCC(C(N)=O)CC3)nc3c(C)cccn3c2=O)cc1", "Potency": "inconclusive [inhibitor, single point]"}
{"smiles": "CS(=O)(=O)N(CC(=O)Nc1ccccc1Sc1ccccc1)c1cccc(Br)c1", "Potency": "inconclusive [inhibitor, partial curve, poor fit]"}
{"smiles": "COc1ccccc1-c1cc(C(=O)NCc2cccs2)no1", "Potency": "inconclusive [inhibitor, partial curve]"}
{"smiles": "CC(C)c1ccc2c(c1)CCC1C(C)(CN)CCCC21C", "note": "(centres undefined)", "Potency": "inconclusive [inhibitor, single point]"}
{"smiles": "NC(=O)COC(=O)CNC(=O)c1sc2ccccc2c1Cl", "Potency": "inactive"}
{"smiles": "Cc1cccc(-n2c(SCCC(=O)O)nnc2-c2cccs2)c1C", "Potency": "inconclusive [inhibitor, single point]"}
{"smiles": "O=C(/C=C/c1cccs1)NC(=S)Nc1ccc(C(=O)O)cc1", "Potency": "inconclusive [activator, partial curve]"}
{"smiles": "Brc1ccc2c(c1)CNc1c(ncnc1N1CCOCC1)O2", "Potency": "inconclusive [inhibitor, single point]"}
